According to the supplement of paper PMC4604168 (melanoma cell lines):
The other results are listed elsewhere or left out. Most values come without repeats; read them as rough.

Key:
Assay in all cases: cell count relative to DMSO control; melanoma cells; higher = more viable cells
Settings in all cases: library dose: low library concentration; 72 h
MZ2-MEL = tested on: MZ2-MEL
MeWo = tested on: MeWo
RPMI7951 = tested on: RPMI7951
RVH-421 = tested on: RVH-421
SkMel28 = tested on: SkMel28
SkMel30 = tested on: SkMel30
SkMel5 = tested on: SkMel5
UACC257 = tested on: UACC257
UACC62 = tested on: UACC62
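Further: cell number obtained by counting DAPI-stained nuclei in high-throughput microscope images with image analysis software, screen run in 1,536-well plates.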

SMILES	cell count (MZ2-MEL)	cell count (MeWo)	cell count (RPMI7951)	cell count (RVH-421)	cell count (SkMel28)	cell count (SkMel30)	cell count (SkMel5)	cell count (UACC257)	cell count (UACC62)
Nc1cccc2c1CN(C1CCC(=O)NC1=O)C2=O (stereo not drawn) [lenalidomide] + Cc1cc([N+](=O)[O-])ccc1NS(=O)(=O)c1cc(Cl)ccc1Cl [FH535] (first compound 1 µM, partner dose 1 µM)	98%	100%	109%	111%	96.7%	93.1%	80%	102%	91.2%
C#Cc1cccc(Nc2ncnc3cc(OCCOC)c(OCCOC)cc23)c1 [erlotinib] + Oc1nc(-c2ccc(C(F)(F)F)cc2)nc2c1CSCC2 [XAV939] (first compound 0.8 µM, partner dose 2 µM)	92.8%	91.5%	87.9%	86.3%	82.7%	120%	94%	75.8%	88.1%
Cn1c(Nc2ccc(C(F)(F)F)cc2)nc2cc(Oc3ccnc(-c4ncc(C(F)(F)F)[nH]4)c3)ccc21 + O=S(=O)(c1ccccc1)N(CC(F)(F)F)c1ccc(C(O)(C(F)(F)F)C(F)(F)F)cc1 [T0901317] (first compound 0.08 µM, partner dose 1.4 µM)	59%	62.6%	61.2%	77.4%	54.5%	43.2%	73.1%	42.1%	50.1%
Cn1c(Nc2ccc(C(F)(F)F)cc2)nc2cc(Oc3ccnc(-c4ncc(C(F)(F)F)[nH]4)c3)ccc21 + COc1ccc2c(c1)CCC1C2CCC2(C)C(NCCCCCCN3C(=O)C=CC3=O)CCC12 [U73122] (first compound 0.08 µM, partner dose 0.4 µM)	69.3%	66.6%	53.5%	63.3%	63.7%	54.4%	72.7%	39.9%	43.6%
O=C(CCCCCCC(=O)Nc1ccccc1)NO [vorinostat] + Oc1nc(-c2ccc(C(F)(F)F)cc2)nc2c1CSCC2 [XAV939] (first compound 0.08 µM, partner dose 2 µM)	90.7%	88.4%	60.1%	98.8%	61.7%	89.7%	70.1%	74.8%	98.3%
Cn1c(Nc2ccc(C(F)(F)F)cc2)nc2cc(Oc3ccnc(-c4ncc(C(F)(F)F)[nH]4)c3)ccc21 + COc1ccc(-c2ccc3c(N4CCOCC4)nc(N4C[C@@H](C)O[C@@H](C)C4)nc3n2)cc1CO [KU0063794] (first compound 0.08 µM, partner dose 0.02 µM)	71.8%	69.3%	59.1%	78.5%	61.5%	56.3%	70.4%	36.4%	60.8%
O=C(CCCCCCC(=O)Nc1ccccc1)NO [vorinostat] + COc1cc2ncnc(Nc3ccc(Oc4ccccc4)cc3)c2cc1OC [SrcI1] (first compound 0.08 µM, partner dose 2 µM)	92.9%	95.1%	110%	108%	86.9%	86.9%	96.9%	94.6%	96.8%
C#Cc1cccc(Nc2ncnc3cc(OCCOC)c(OCCOC)cc23)c1 [erlotinib] + CCN(CC)CCCCNc1ncc2cc(-c3cc(OC)cc(OC)c3)c(NC(=O)NC(C)(C)C)nc2n1 [PD173074] (first compound 0.8 µM, partner dose 0.1 µM)	93.5%	94%	99%	110%	97%	82.8%	100%	85%	102%
Cn1c(Nc2ccc(C(F)(F)F)cc2)nc2cc(Oc3ccnc(-c4ncc(C(F)(F)F)[nH]4)c3)ccc21 + O=C(Nc1ccccc1)c1cc([N+](=O)[O-])ccc1Cl [GW9662] (first compound 0.08 µM, partner dose 2 µM)	77.3%	80.9%	70%	75.2%	58.3%	62%	73.7%	39.2%	54.7%
C#Cc1cccc(Nc2ncnc3cc(OCCOC)c(OCCOC)cc23)c1 [erlotinib] + Oc1cc(-c2nc(-c3ccccc3)[nH]c2-c2ccncc2)ccc1Cl [L779450] (first compound 0.8 µM, partner dose 0.2 µM)	73.7%	97.8%	98.3%	84.7%	86.2%	94.7%	103%	88.1%	86.9%
Nc1cccc2c1CN(C1CCC(=O)NC1=O)C2=O (stereo not drawn) [lenalidomide] + N#Cc1c(O)c2c(-c3ccc(-c4ccccc4O)cc3)csc2[nH]c1=O [A769662] (first compound 1 µM, partner dose 2 µM)	97.7%	98.2%	101%	111%	82.8%	97.4%	94.4%	92.1%	108%
COCC[n+]1c2c(n(Cc3cnccn3)c1C)C(=O)c1ccccc1C2=O + COc1cc2ncnc(Nc3ccc(Oc4ccccc4)cc3)c2cc1OC [SrcI1] (first compound 0.0004 µM, partner dose 2 µM)	54.1%	80.4%	85.8%	114%	95.2%	88.4%	72.5%	92.7%	99.7%
Nc1cccc2c1CN(C1CCC(=O)NC1=O)C2=O (stereo not drawn) [lenalidomide] + COc1ccc(COc2ccc(Cc3cnc(N)nc3N)cc2OC)cc1 [GW2580] (first compound 1 µM, partner dose 1 µM)	99.5%	89.9%	104%	102%	93.2%	106%	97.8%	90.5%	80.3%
COCC[n+]1c2c(n(Cc3cnccn3)c1C)C(=O)c1ccccc1C2=O + Cn1cc(/C=C2\C(=O)Nc3cccnc32)c2ccccc21 [GW441756] (first compound 0.0004 µM, partner dose 0.4 µM)	51.7%	97.3%	74.8%	94.3%	87.7%	90.1%	82.2%	88.6%	105%
Cn1c(Nc2ccc(C(F)(F)F)cc2)nc2cc(Oc3ccnc(-c4ncc(C(F)(F)F)[nH]4)c3)ccc21 + COc1cc2ncnc(Nc3ccc(Oc4ccccc4)cc3)c2cc1OC [SrcI1] (first compound 0.08 µM, partner dose 2 µM)	86.5%	73.7%	68.1%	85.8%	56.4%	68.3%	77.1%	42.8%	51.4%
COCC[n+]1c2c(n(Cc3cnccn3)c1C)C(=O)c1ccccc1C2=O + COc1ccc(-c2ccc3c(N4CCOCC4)nc(N4C[C@@H](C)O[C@@H](C)C4)nc3n2)cc1CO [KU0063794] (first compound 0.0004 µM, partner dose 0.02 µM)	41.4%	80.4%	73.7%	99.8%	94.2%	73.5%	61%	88.4%	81.8%
COCC[n+]1c2c(n(Cc3cnccn3)c1C)C(=O)c1ccccc1C2=O + COc1ccc(COc2ccc(Cc3cnc(N)nc3N)cc2OC)cc1 [GW2580] (first compound 0.0004 µM, partner dose 1 µM)	80.3%	90.5%	104%	106%	96.7%	87.1%	74.8%	83.3%	106%
O=C(CCCCCCC(=O)Nc1ccccc1)NO [vorinostat] + COc1ccc(-c2ccc3c(N4CCOCC4)nc(N4C[C@@H](C)O[C@@H](C)C4)nc3n2)cc1CO [KU0063794] (first compound 0.08 µM, partner dose 0.02 µM)	89.8%	89.7%	89%	119%	101%	103%	82%	82.4%	101%
COCC[n+]1c2c(n(Cc3cnccn3)c1C)C(=O)c1ccccc1C2=O + O=S(=O)(c1ccccc1)N(CC(F)(F)F)c1ccc(C(O)(C(F)(F)F)C(F)(F)F)cc1 [T0901317] (first compound 0.0004 µM, partner dose 1.4 µM)	58.4%	98.3%	102%	112%	97.7%	82.3%	65.4%	94.8%	107%
Cn1c(Nc2ccc(C(F)(F)F)cc2)nc2cc(Oc3ccnc(-c4ncc(C(F)(F)F)[nH]4)c3)ccc21 + N#Cc1c(O)c2c(-c3ccc(-c4ccccc4O)cc3)csc2[nH]c1=O [A769662] (first compound 0.08 µM, partner dose 2 µM)	92.6%	64%	67.3%	68.2%	55.7%	62.7%	68.5%	38.4%	43.1%
C#Cc1cccc(Nc2ncnc3cc(OCCOC)c(OCCOC)cc23)c1 [erlotinib] + O=S(=O)(c1ccccc1)N(CC(F)(F)F)c1ccc(C(O)(C(F)(F)F)C(F)(F)F)cc1 [T0901317] (first compound 0.8 µM, partner dose 1.4 µM)	95.6%	95.9%	98.8%	93.3%	79.8%	88%	82.4%	74.3%	91.1%
Cn1c(Nc2ccc(C(F)(F)F)cc2)nc2cc(Oc3ccnc(-c4ncc(C(F)(F)F)[nH]4)c3)ccc21 + O=C1NC(=O)/C(=C/c2ccc(-c3ccc(F)cc3O)o2)S1 [AS252424] (first compound 0.08 µM, partner dose 1 µM)	83.7%	55.8%	57.8%	59.8%	52.8%	57.5%	67.2%	33.9%	47.5%
